# From paper PMC4336329 (PLoS ONE, 2015)
# In all, about 310,000 compounds went through this assay and about 14,000 (4.5%) showed an effect of 50% or more. The effect is printed as a negative number. The list shows a part of the results.
# Biological target: human ether-à-go-go-related gene (hERG) potassium channel (human, UniProt Q12809)
# Assay: primary screen, population patch clamp on CHO cells stably expressing hERG
# 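Also: peak tail current of the secondary pulse compared with the same well before compound.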
# Sequence of human ether-à-go-go-related gene (hERG) potassium channel (Q12809 whole entry, looked up): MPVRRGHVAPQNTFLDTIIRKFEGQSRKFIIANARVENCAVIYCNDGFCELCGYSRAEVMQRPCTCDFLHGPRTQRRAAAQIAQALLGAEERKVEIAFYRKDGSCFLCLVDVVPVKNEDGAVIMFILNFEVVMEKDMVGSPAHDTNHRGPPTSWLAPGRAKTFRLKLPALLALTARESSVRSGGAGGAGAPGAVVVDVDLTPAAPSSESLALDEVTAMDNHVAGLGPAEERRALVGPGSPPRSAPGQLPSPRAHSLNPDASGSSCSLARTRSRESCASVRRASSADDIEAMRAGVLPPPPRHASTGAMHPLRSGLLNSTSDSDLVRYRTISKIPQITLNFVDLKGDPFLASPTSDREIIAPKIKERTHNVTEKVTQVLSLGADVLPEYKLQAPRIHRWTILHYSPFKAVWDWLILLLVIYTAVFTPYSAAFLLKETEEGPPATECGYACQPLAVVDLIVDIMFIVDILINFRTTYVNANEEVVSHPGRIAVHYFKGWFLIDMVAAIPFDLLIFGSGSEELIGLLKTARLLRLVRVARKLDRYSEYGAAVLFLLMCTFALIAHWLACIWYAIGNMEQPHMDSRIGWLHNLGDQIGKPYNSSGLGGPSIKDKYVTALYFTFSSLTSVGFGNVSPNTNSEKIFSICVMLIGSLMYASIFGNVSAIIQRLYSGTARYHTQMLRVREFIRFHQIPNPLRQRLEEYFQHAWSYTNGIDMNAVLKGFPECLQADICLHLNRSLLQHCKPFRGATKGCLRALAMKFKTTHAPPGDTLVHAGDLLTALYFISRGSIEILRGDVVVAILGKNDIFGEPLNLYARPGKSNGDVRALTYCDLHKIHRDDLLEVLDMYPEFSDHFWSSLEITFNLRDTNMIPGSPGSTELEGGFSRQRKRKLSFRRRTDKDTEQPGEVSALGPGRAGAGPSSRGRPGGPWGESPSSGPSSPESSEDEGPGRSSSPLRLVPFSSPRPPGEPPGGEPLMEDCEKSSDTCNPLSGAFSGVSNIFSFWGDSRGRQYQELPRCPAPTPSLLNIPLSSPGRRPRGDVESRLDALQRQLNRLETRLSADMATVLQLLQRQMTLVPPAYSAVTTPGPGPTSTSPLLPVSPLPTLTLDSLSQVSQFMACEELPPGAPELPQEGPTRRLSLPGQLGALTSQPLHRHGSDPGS
row,Compound,"hERG current change (%, negative = inhibition) at 10uM"
1,CN(C)CCNC(=O)c1ccc(Cl)s1,-2.03%
2,COC(=O)c1ccc(CSC2=NCCS2)cc1,1.43%
3,COc1ccccc1C(=O)NCCC(=O)Nc1ccc(S(=O)(=O)N2CC(C)CC(C)C2)cc1 (centres unmarked),10.6%
4,O=C(COc1ccc(Cl)cc1Cl)NCCCCc1ccccc1,16%
5,CCc1ccccc1-n1c(SCC(=O)NC)nnc1-c1cccnc1,12.8%
6,Cn1c(=O)c2c(nc(SCC(=O)NCc3ccco3)n2C)n(C)c1=O,-6.67%
7,COc1ccc(NS(=O)(=O)c2ccc(OCC(=O)N3CCOCC3)cc2)cc1,8.44%
8,Fc1ccc(-[n+]2nc(Nc3ccccc3)sc2-c2c(Cl)cccc2Cl)cc1.[Cl-],-64%
9,Cc1ccc(-n2c(SCC(N)=O)nnc2-c2ccco2)cc1,3.93%
10,Cc1ccc2cccc(S(=O)(=O)N3CCN(c4cccc(Cl)c4)CC3)c2n1,-2.91%
11,O=[N+]([O-])c1cccc(S(=O)(=O)N2CCN(S(=O)(=O)N3CCOCC3)CC2)c1,17.4%
12,COc1ccc2c(c1OC)CN(C)CCc1cc3c(cc1C(O)C2)OCO3 (centres unmarked),-27.1%
13,CCOc1nc2cnccc2n(CC(=O)Nc2cccc(C)c2C)c1=O,1.36%
14,CC1CCCN(C(=O)CN2CCN(C(=O)c3ccco3)CC2)C1 (centres unmarked),4.68%
15,Cc1c(-c2ccn[nH]2)cc(NC(=O)c2ccc(Cl)cc2)c(=O)n1N,-4.25%
16,COc1cccc(NC(=O)CCNC(=O)c2ccccc2Cl)c1,5.86%
17,CCc1cc2c(NCCN3CCCCC3)ncnc2s1.Cl,-71.9%
18,CCOC(=O)c1c(C)[nH]c(C(=O)COC(=O)CSC)c1C,4.01%
19,COc1ccc(NC(=O)CSc2nc3ccccc3n2-c2ccccc2)c([N+](=O)[O-])c1,6.53%
20,Cc1cccc(N2C(=O)CN(Cc3cccs3)C2=S)c1,-1.6%
21,CC(C)CNC(=O)c1cccc(NC(=O)Cc2ccc(Cl)cc2)c1,1.02%
22,CC(C)(C)OC(=O)NCCCCCc1cn(CC(=O)NCCCCCCCCCCC(=O)N2CCN(C(=O)OC(C)(C)C)CC2)nn1,11.3%

row,Compound,"hERG current change (%, negative = inhibition) at 10uM"
1,C#CCOCCOCCOCCNc1nc(N2CCN(C(=O)[C@H](C(C)C)n3cc(CCO)nn3)CC2)nc(N2CCN(C(=O)[C@H](C(C)C)n3cc(CCO)nn3)CC2)n1,2.97%
2,CC(C)n1c(O)c(/C=C2\C=NN=C2c2ccccc2)sc1=S,13.9%
3,CCOc1ccc(CNC23CN4CN(CN(C4)C2)C3)cc1,-7.62%
4,O=C(CN1CCN(Cc2ccc3c(c2)OCO3)CC1)Nc1ccc(F)cc1,-81.7%
5,Nc1nnc(CSCc2ccc(Cl)cc2Cl)s1,0.235%
6,COc1cccc(CN2CCN(Cc3ccccc3C(F)(F)F)CC2)c1,-1.24%
7,Cc1ccc(S(=O)(=O)N(Cc2ccc(F)cc2)C(=O)N2CCN(C)CC2)cc1,7.6%
8,O=C(CCC(=O)Nc1ccc(Br)cc1)N/N=C/c1ccccc1F,4.44%
9,COc1ccc(O)c(C2=Nc3ccccc3N=C(c3ccccc3)C2)c1,0.102%
10,Cc1ccccc1-c1nc(CS(=O)(=O)CC(=O)NC2CCCC2)c(C)o1,4.63%
11,CCOc1ccc(-c2[nH]ncc2Oc2ccccc2OC)c(O)c1,10.3%
12,CCN(CCCNC(=O)c1cc2c(-c3cccc(OC)c3)nn(C)c2s1)Cc1ccccc1,-68.1%
13,COc1ccc(OCCNC(=O)c2ccccc2OCC(=O)Nc2ccc(NC(C)=O)cc2)cc1,-11.6%
14,CC(C)Cn1c(SCC(=O)c2c(N)n(C)c(=O)n(C)c2=O)nc2ccccc21,8.79%
15,C#CCOc1nc(Nc2cccc([N+](=O)[O-])c2)nc(OCC#C)n1,-10.1%
16,COc1cccc(CN2CCN(C(=O)c3cccc4ccccc34)CC2)c1OC.O=C(O)C(=O)O,-0.0473%
17,COc1cccc(NC(=O)CSc2nnc(-c3ccoc3C)n2CC2CCCO2)c1 (centres unmarked),-1.09%
18,Cc1ccc(/C=N/NC(=O)c2ccncc2)cc1,1.58%
19,COc1cccc(CNC(=O)c2ccc(C)c(S(=O)(=O)N3CCOCC3)c2)c1,-14.9%
20,COCCCNC(=O)c1cc2c(-c3ccc(Cl)cc3)nn(C)c2s1,-3.72%
21,O=C(CN1C2CCCC1CC(NC(=O)c1ccccc1)C2)Nc1ccccc1C(F)(F)F (centres unmarked),6.14%
22,Cc1ccc(C23CC4CC(CC(NC(=O)NC(C)(C)CO)(C4)C2)C3)cc1,-2.15%

row,Compound,"hERG current change (%, negative = inhibition) at 10uM"
1,Clc1ccccc1-c1nc(-c2ccncc2)no1,-3.96%
2,CC(=O)c1ccc(NC(=O)COc2ccccc2C(=O)Nc2ccccc2)cc1,9.66%
3,O=S(=O)(c1ccc(Cl)cc1)c1cc(O)ccc1O,8.43%
4,Cc1cccc(NC(=O)CN2C(=S)NC(C)(C)CC2C)c1C (centres unmarked),6.98%
5,COc1ccc(CC(=O)NC(C)c2nnc(SCC(=O)Nc3ccccc3F)n2C)cc1 (centres unmarked),9.89%
6,COc1ccc2c(c1)O[C@H](c1ccc3c(c1)OCO3)[C@@H](OC(=O)N[C@H](C)C1CCCCC1)C2=O,-9.35%
7,CCOc1ccc(NC(=O)CC(Cc2cc(C)cc(C)c2)C(=O)O)cc1 (centres unmarked),14.6%
8,O=C(Oc1ccccc1N1C(=O)C2CCCCC2C1=O)c1ccccc1F (centres unmarked),2.26%
9,CCOc1ccc2ccccc2c1C1NC(=O)NC(C)=C1C(=O)OCCOC (centres unmarked),29.7%
10,CC1=NN(c2ccccc2)C(=O)/C1=C\c1cc(C)n(C)c1C,18.1%
11,COc1ccc(C2CC(=O)c3cnc(NC(=O)c4ccccc4)nc3C2)c(OC)c1 (centres unmarked),-17.7%
12,CCOc1ccccc1NC(=O)N1CCC(n2nnc3cc(C)ccc32)CC1,-53.9%
13,OC(COc1ccc(-c2ccccc2)cc1)CN1CCOCC1 (centres unmarked),-19.7%
14,O=C(COc1ccccc1Cl)Nc1ccccc1C(=O)N1CCOCC1,-3.18%
15,Cc1c(C(N)=O)sc2nc(-c3ccccc3)cn12,1.01%
16,C=CCNC(=O)c1cc2c(=O)n3cccc(C)c3nc2s1,0.811%
17,CC1Oc2ccccc2N(CC(=O)Nc2ccccc2F)C1=O (centres unmarked),21%
18,Cn1c(SCC(=O)NCc2ccccc2)ncc(C(=O)Nc2ccccc2)c1=O,-20%
19,COc1ccc(OC)c(-c2csc(NC(=O)CSc3ccc([N+](=O)[O-])cc3)n2)c1,13.5%
20,CNCC(O)c1ccc(OC(=O)C(C)(C)C)c(OC(=O)C(C)(C)C)c1.Cl (centres unmarked),-2.48%
21,COc1cc(/C=N/NC(=O)Cn2ccc(C(F)(F)F)n2)cc(OC)c1OC,-3.8%
22,Cc1ccc(NC(=O)Nc2ccc(S(N)(=O)=O)cc2)cc1,16.5%

row,Compound,"hERG current change (%, negative = inhibition) at 10uM"
1,CC(C(=O)N1CCOCC1)(c1ccccc1)c1ccccc1,-4.73%
2,CN(C)S(=O)(=O)c1ccc(/C(O)=C2/C(=O)C(=O)N(CCCN3CCOCC3)C2c2ccncc2)cc1 (centres unmarked),18.3%
3,COCCNS(=O)(=O)c1ccc2c(c1)Cc1cc(S(=O)(=O)NCCOC)ccc1-2,-22.1%
4,COc1ccc(NC2CCCCC2NS(=O)(=O)c2ccc(C)cc2)cc1 (centres unmarked),-0.922%
5,CCC(C)[C@H](N)c1nnc(SCc2cccc(F)c2)o1.Cl (some centres unmarked),18.8%
6,O=S(=O)(Nc1ccc(N2CCOCC2)cc1)c1ccccc1,1.24%
7,COc1cc2c3nnc(-c4ccc(F)cc4)c-3cn(Cc3ccc(F)cc3)c2cc1OC,-28.5%
8,Cl.Oc1ccc(-c2csc(Nc3cccc4ccccc34)n2)cc1O,14.4%
9,O=C1NCCCC1C(=O)N1CCN(C(c2ccccc2)c2ccccc2)CC1 (centres unmarked),-2.25%
10,O=C(N/N=C/c1cccnc1)c1cc(-c2ccccc2)nc2ccccc12,-22.1%
11,COc1ccc(OC)c(NC(=O)COC(=O)/C=C/c2ccccc2Cl)c1,0.775%
12,CC(C)(CN1CCCC1)NS(=O)(=O)c1ccccc1.Cl,24.7%
13,CCN=c1scc(-c2ccccc2)n1/N=C/c1ccccn1,-12.1%
14,CCOc1ccccc1C1C(C(=O)OC)=C(N)OC2=C1C(=O)CCC2 (centres unmarked),-4.55%
15,CCN(CC)Cc1c(C(=O)N/N=C(\C)c2ccncc2)nnn1-c1nonc1N,-80.3%
16,CCc1nc(Nc2ccccc2O)c2oc3ccccc3c2n1.Cl,-25.6%
17,CCOc1cc(/C=N/n2c(C)nnc2C)ccc1O,7.63%
18,O=C(COC(=O)c1cc(S(=O)(=O)N2CCOCC2)c(Cl)cc1Cl)Nc1ncc(C(F)(F)F)cc1Cl,-0.837%
19,CC1CCN(S(=O)(=O)c2ccc(Cl)cc2Br)CC1,-5.46%
20,Cc1cc(OCC(=O)N[C@@H](Cc2ccccc2)c2nc3ccccc3[nH]2)ccc1Cl,-1.88%
